The list shows a part of the results.
The compounds below were run on HSkMC (human skeletal muscle cells) (assay: cytotoxicity call (relative viability < 0.9)). Conditions: 10 µM.

| SMILES | cytotoxicity call |
| --- | --- |
| C[C@H](CO)N1C[C@H](C)[C@H](CN(C)C(=O)Nc2ccccc2)OCCCC[C@H](C)Oc2ccc(NC(=O)Nc3ccc(F)cc3)cc2C1=O | inactive |
| CC(=O)Nc1c(I)c(NC(C)=O)c(I)c(C(=O)O)c1I | inactive |
| C[C@H](CO)N1C[C@H](C)[C@H](CN(C)S(=O)(=O)c2cccs2)OCCCC[C@H](C)Oc2ccc(NC(=O)C3CCCCC3)cc2C1=O | inactive |
| O=C(CN1CCOCC1)N[C@H]1CC[C@H](CCNS(=O)(=O)c2ccccc2F)O[C@@H]1CO | inactive |
| COc1cccc(C#Cc2cnc3c(c2)C(=O)N([C@@H](C)CO)C[C@@H](C)[C@@H](CN(C)C(=O)C2CCOCC2)O3)c1 | inactive |
| COc1cccc(NC(=O)N[C@H]2CC[C@H](CC(=O)N3CCN(C)CC3)O[C@@H]2CO)c1 | inactive |
| CO[C@@H]1CN(C)C(=O)c2ccc(NC(=O)CC(F)(F)F)cc2OC[C@H](C)N(C(=O)C2CCOCC2)C[C@H]1C | inactive |
| C[C@@H]1CN([C@@H](C)CO)C(=O)c2c(c3ccccc3n2C)-c2ccccc2CO[C@@H]1CN(C)C(=O)N[C@H](C)c1ccccc1 | inactive |
| C[C@H](CO)N1C[C@H](C)[C@@H](CN(C)CC2CCCCC2)Oc2ccc(NC(=O)Nc3cccc4ccccc34)cc2C1=O | inactive |
| CO[C@H]1CN(C)C(=O)c2cc(NS(=O)(=O)CC(F)(F)F)ccc2OC[C@H](C)N(C(=O)c2ccc3c(c2)OCO3)C[C@H]1C | inactive |
| CCCNC(=O)N(C)C[C@H]1Oc2cc(-c3ccccc3F)ccc2S(=O)(=O)N([C@@H](C)CO)C[C@H]1C | inactive |
| O=C(C[C@@H]1CC[C@@H]2[C@H](COC[C@H](O)CN2S(=O)(=O)c2ccc(Cl)cc2)O1)NCc1ccncn1 | inactive |
| CCCCCN1CC=C[C@@]23O[C@@H]4C=CCOC(=O)[C@@H]4[C@H]2C(=O)N([C@@H](C)CO)[C@@H]3C1=O | inactive |
| C[C@@H]1CN([C@@H](C)CO)C(=O)CCCn2cc(nn2)CO[C@@H]1CN(C)C(=O)C1CC1 | inactive |
| COc1ccc(S(=O)(=O)Nc2ccc3c(c2)C(=O)N([C@@H](C)CO)C[C@@H](C)[C@H](CN(C)S(=O)(=O)c2cccs2)O3)cc1 | inactive |
| COc1ccc2c3c([nH]c2c1)[C@@H](CO)N(C[C@]13CN(Cc2nccs2)C1)S(=O)(=O)c1ccc(cc1)C | inactive |
| C=CCN1C(=O)C[C@@H]2[C@@H]1CCN2c1cnccn1 | inactive |
| C[C@@H]1CN([C@H](C)CO)S(=O)(=O)c2ccc(C#Cc3ccccc3)cc2O[C@@H]1CN(C)C(=O)CN(C)C | inactive |
| COc1ccc(NC(=O)Nc2ccc3c(c2)C(=O)N([C@@H](C)CO)C[C@H](C)[C@@H](CN(C)CC2CC2)OCCCC[C@H](C)O3)cc1 | inactive |
| CO[C@H]1C[C@@H](C[C@@H](C)[C@H]2CC(=O)[C@@H](C)/C=C(/C)[C@@H](O)[C@@H](OC)C(=O)[C@@H](C)C[C@@H](C)C=C/C=C\C=C(C)[C@H](OC)C[C@H]3CC[C@@H](C)[C@@](O)(O3)C(=O)C(=O)N3CCCC[C@@H]3C(=O)O2)CC[C@@H]1O | inactive |

| SMILES | cytotoxicity call |
| --- | --- |
| C[C@H]1CN([C@@H](C)CO)C(=O)c2cc(-c3cccc(C#N)c3)cnc2O[C@H]1CN(C)C(=O)c1cnccn1 | inactive |
| COc1ccccc1CN(C)C[C@@H]1OCc2ccccc2-c2c(n(C)c3ccccc23)C(=O)N([C@H](C)CO)C[C@@H]1C | inactive |
| CCCNC(=O)N1C[C@@H](C)[C@H](OC)CN(C)C(=O)c2cc(NS(=O)(=O)CC(F)(F)F)ccc2OC[C@@H]1C | inactive |
| COc1ccc(S(=O)(=O)Nc2cccc3c2O[C@@H](CN(C)Cc2ccncc2)[C@@H](C)CN([C@@H](C)CO)C3=O)cc1 | inactive |
| COc1ccccc1-c1cccc(-c2nc(C(=O)Nc3nccs3)cc3c2[C@@H](CCO)N(C(=O)CC2CC2)C3)c1 | inactive |
| C[C@@H]1CN([C@H](C)CO)C(=O)c2cc(NC(=O)Nc3ccc(F)cc3)ccc2O[C@@H](C)CCCCO[C@H]1CN(C)C(=O)Nc1ccc(C(F)(F)F)cc1 | inactive |
| CS(=O)(=O)NC[C@@]12COC[C@H]1CN(C(=O)COC1CCCC1)C2 | inactive |
| O=C1C(Cl)=C2OC[C@@]2(O)C[C@@H]2CCCN12 | inactive |
| C[C@H](CO)N1C[C@H](C)[C@H](CN(C)CC2CC2)Oc2c(NS(=O)(=O)c3cn(C)cn3)cccc2C1=O | inactive |
| C[C@@H]1CCCCO[C@@H](CN(C)S(=O)(=O)c2ccc(Cl)cc2)[C@@H](C)CN([C@H](C)CO)C(=O)c2cc(NC(=O)Nc3ccc(F)cc3)ccc2O1 | inactive |
| COc1ccc(S(=O)(=O)Nc2ccc3c(c2)C(=O)N([C@@H](C)CO)C[C@@H](C)[C@H](CN(C)Cc2ccncc2)O3)cc1 | inactive |
| CCS(=O)(=O)N1C[C@]2(CN(C2)S(=O)(=O)c2cn(cn2)C)c2c([nH]c3cc(ccc23)OC)[C@H]1CO | inactive |
| CCCN(C)C[C@@H]1OCCCC[C@H](C)Oc2ccc(NC(=O)Nc3ccc(C(F)(F)F)cc3)cc2C(=O)N([C@@H](C)CO)C[C@@H]1C | active |
| O=C(O)c1cc(S(=O)(=O)NCCN2CCNC2=O)ccc1O | inactive |
| CCOC(=O)Nc1ccc(NCc2ccc(F)cc2)nc1N.O=C(O)C=CC(=O)O | inactive |
| C[C@H]1CCCCO[C@H](CN(C)Cc2ccccc2)[C@@H](C)CN([C@@H](C)CO)C(=O)c2cc(NS(=O)(=O)c3cccs3)ccc2O1 | inactive |
| CC(C)NC(=O)N(C)C[C@H]1Oc2ccc(NS(=O)(=O)c3ccc(Cl)cc3)cc2CC(=O)N([C@@H](C)CO)C[C@@H]1C | inactive |
| C[C@@H]1CCCCO[C@@H](CN(C)C(=O)Nc2cccc3ccccc23)[C@@H](C)CN([C@H](C)CO)C(=O)c2cc(NC(=O)Nc3cccc4ccccc34)ccc2O1 | inactive |
| CC(=O)N1CCS(=O)(=O)[C@@H]2CCN(S(=O)(=O)c3ccccc3C)CC[C@@H]21 | inactive |
| C[C@H](NC(=O)C[C@H]1C=C[C@H](NC(=O)CN2CCOCC2)[C@H](CO)O1)c1ccccc1 | inactive |
